# Data published in the supplement of paper PMC10369915.
# The list shows a part of the results. No stated cut-off is given here; in the data, active = 3.2 or more and inactive = the rest. Only a few entries rise above the background.
# B1: CRYGS_Y21 (peptide)
# chain: FQGRRYDCDCD
# B2: CTNNA1_Y222_P219S (peptide)
# chain: NVSILYTASQA
# B3: CTNNB1_Y30 (peptide)
# chain: WQQQSYLDSGI
# B4: CTNNB1_Y30_G34V (peptide)
# chain: WQQQSYLDSVI
# B5: CTNNB1_Y30_S33L (peptide)
# chain: WQQQSYLDLGI
# B6: CRX_Y67_V66I_YF (peptide)
# chain: QFPDIYAREEV
# B7: CSF1R_Y708_R710H (peptide)
# chain: HLEKKYVHRDS
# B8: CSF1R_Y923_R921Q (peptide)
# chain: RREQDYTNLPS
# B9: CRB1_Y760_R764C (peptide)
# chain: LENSTYQYICV
# B10: CSNK1A1_Y294_D297H_YF (peptide)
# chain: NHQFDYTFHWT
# B11: CSF1R_Y873 (peptide)
# chain: LVKDGYQMAQP
# B12: CTNNB1_Y30_D32A (peptide)
# chain: WQQQSYLASGI
# B13: CSNK2A1_Y131_YF (peptide)
# chain: QTLTDYDIRFF
# B14: CST4_Y35 (peptide)
# chain: IPGGIYDADLN
# B15: CSNK2A1_Y50_R47Q (peptide)
# chain: LGQGKYSEVFE
# B16: CRELD1_Y328 (peptide)
# chain: NTEGGYRCICA
# B17: CSNK2A1_Y131_L128S (peptide)
# chain: QTSTDYDIRFY
# B18: CSRP3_Y73 (peptide)
# chain: PKGIGYGQGAG
# B19: CSF1R_Y873_L868P (peptide)
# chain: PVKDGYQMAQP
# B20: CREBBP_Y1450_T1447I (peptide)
# chain: LRIAVYHEILI
# B21: CTNND1_Y174_S171F (peptide)
# chain: SVFNNYIQTLG
# B22: CTNND1_Y174 (peptide)
# chain: SVSNNYIQTLG
# B23: CSRP3_Y73_G72R (peptide)
# chain: PKGIRYGQGAG
# B24: CSNK1G2_Y206_Y206H (peptide)
# chain: KKHIPHREHKS
# B25: CREBBP_Y1450_Y1450H (peptide)
# chain: LRTAVHHEILI
# B26: CTNND1_Y217_Y217C (peptide)
# chain: GYSRHCEDGYP
# B27: CSNK1G2_Y206_Y206C (peptide)
# chain: KKHIPCREHKS
# B28: CTNNB1_Y30_S33Y (peptide)
# chain: WQQQSYLDYGI
# B29: CRX_Y63_V66I_YF (peptide)
# chain: FAKTQYPDIFA
# B30: CTNNA3_Y614_T616P (peptide)
# chain: ISKKIYDPIHD
# B31: CRX_Y67_YF (peptide)
# chain: QFPDVYAREEV
# B32: CRIM1_Y826_R831Q (peptide)
# chain: FSGKAYADEEQ
# B33: CRYAA_Y18_R21L (peptide)
# chain: TLGPFYPSLLF
# B34: CRLF1_Y272_F268S_YF (peptide)
# chain: LSQAKYQIRFR
# B35: CSNK1G2_Y195_E194G (peptide)
# chain: GLAKGYIDPET
# B36: CSNK1G2_Y206_R207S (peptide)
# chain: KKHIPYSEHKS
# B37: CTNND1_Y213_Y217C (peptide)
# chain: YPPDGYSRHCE
# Target: SHP2 C-SH2 domain E139D
# Test: enrichment score (SH2-bound / input frequency) (ratio); bacterial display of known human phosphotyrosine sites (pTyr-Var adds point mutants) read by sequencing; higher = stronger binding; tyrosines were phosphorylated by kinases first
# Conditions: peptide library: pTyr-Var
# 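Further: displayed peptides selected on beads carrying the immobilized SH2 domain, with library peptides lacking any tyrosine serving as negative controls.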
row,Binder,enrichment score
1,B1,inactive: 0.529
2,B2,inactive: 1.16
3,B3,inactive: 0.94
4,B4,inactive: 0.741
5,B5,inactive: 1.27
6,B6,inactive: 1.12
7,B7,inactive: 0.615
8,B8,inactive: 0.209
9,B9,inactive: 1.26
10,B10,inactive: 1.26
11,B11,inactive: 0.94
12,B12,inactive: 0.966
13,B13,inactive: 0.692
14,B14,inactive: 1.06
15,B15,inactive: 0.897
16,B16,inactive: 0.781
17,B17,inactive: 0.402
18,B18,inactive: 0.465
19,B19,inactive: 0.603

row,Binder,enrichment score
1,B20,inactive: 1.8
2,B21,inactive: 1.16
3,B22,inactive: 0.651
4,B23,inactive: 0.623
5,B24,active: 5.95
6,B25,inactive: 1.77
7,B26,inactive: 0.801
8,B27,active: 4.19
9,B28,inactive: 1.13
10,B29,inactive: 1.11
11,B30,inactive: 0.804
12,B31,inactive: 1.33
13,B32,inactive: 0.649
14,B33,inactive: 0.66
15,B34,inactive: 0.615
16,B35,inactive: 0.679
17,B36,inactive: 3.03
18,B37,inactive: 0.792

# Target: SHP2 C-SH2 domain wild-type
# Test: as above
# Conditions: peptide library: pTyr-Var
row,Binder,enrichment score
1,B1,inactive: 0.512
2,B2,inactive: 0.935
3,B3,inactive: 0.803
4,B4,inactive: 0.712
5,B5,inactive: 1.13
6,B6,inactive: 1.12
7,B7,inactive: 0.481
8,B8,inactive: 0.213
9,B9,inactive: 1.56
10,B10,inactive: 1.2
11,B11,inactive: 0.845
12,B12,inactive: 0.8
13,B13,inactive: 0.76
14,B14,inactive: 0.956
15,B15,inactive: 0.879
16,B16,inactive: 0.903
17,B17,inactive: 0.745
18,B18,inactive: 0.649
19,B19,inactive: 0.612

row,Binder,enrichment score
1,B20,inactive: 2.47
2,B21,inactive: 1.32
3,B22,inactive: 0.922
4,B23,inactive: 0.561
5,B24,active: 4.51
6,B25,inactive: 1.61
7,B26,inactive: 0.861
8,B27,active: 3.49
9,B28,inactive: 1.13
10,B29,inactive: 0.858
11,B30,inactive: 0.699
12,B31,inactive: 0.913
13,B32,inactive: 0.659
14,B33,inactive: 0.875
15,B34,inactive: 0.601
16,B35,inactive: 0.498
17,B36,inactive: 2.93
18,B37,inactive: 0.655

# Target: SHP2 N-SH2 domain L43F
# Test: as above
# Conditions: peptide library: pTyr-Var
row,Binder,enrichment score
1,B1,inactive: 0.418
2,B2,inactive: 0.929
3,B3,inactive: 0.917
4,B4,inactive: 0.738
5,B5,inactive: 1.07
6,B6,inactive: 1.1
7,B7,inactive: 0.515
8,B8,inactive: 0.151
9,B9,inactive: 1.25
10,B10,inactive: 1.06
11,B11,inactive: 0.878
12,B12,inactive: 0.867
13,B13,inactive: 0.779
14,B14,inactive: 1.35
15,B15,inactive: 1.04
16,B16,inactive: 0.776
17,B17,inactive: 0.562
18,B18,inactive: 0.548
19,B19,inactive: 0.689

row,Binder,enrichment score
1,B20,inactive: 1.73
2,B21,inactive: 1.28
3,B22,inactive: 0.669
4,B23,inactive: 0.565
5,B24,active: 4.74
6,B25,inactive: 2.01
7,B26,inactive: 0.592
8,B27,active: 3.71
9,B28,inactive: 1.09
10,B29,inactive: 1.05
11,B30,inactive: 0.789
12,B31,inactive: 1.2
13,B32,inactive: 0.651
14,B33,inactive: 0.704
15,B34,inactive: 0.697
16,B35,inactive: 0.496
17,B36,inactive: 2.46
18,B37,inactive: 0.718

# Target: SHP2 N-SH2 domain T42A
# Test: as above
# Conditions: peptide library: pTyr-Var
row,Binder,enrichment score
1,B1,inactive: 0.476
2,B2,inactive: 1.07
3,B3,inactive: 0.867
4,B4,inactive: 0.639
5,B5,inactive: 1.5
6,B6,inactive: 0.874
7,B7,inactive: 0.419
8,B8,inactive: 0.306
9,B9,inactive: 1.44
10,B10,inactive: 1.23
11,B11,inactive: 0.826
12,B12,inactive: 0.782
13,B13,inactive: 0.724
14,B14,inactive: 0.726
15,B15,inactive: 0.937
16,B16,inactive: 0.521
17,B17,inactive: 0.683
18,B18,inactive: 0.495
19,B19,inactive: 0.627

row,Binder,enrichment score
1,B20,inactive: 1.39
2,B21,inactive: 1.31
3,B22,inactive: 0.8
4,B23,inactive: 0.508
5,B24,active: 4.2
6,B25,inactive: 1.19
7,B26,inactive: 0.716
8,B27,active: 3.34
9,B28,inactive: 1.37
10,B29,inactive: 1.13
11,B30,inactive: 0.636
12,B31,inactive: 0.854
13,B32,inactive: 0.64
14,B33,inactive: 0.738
15,B34,inactive: 0.695
16,B35,inactive: 0.414
17,B36,inactive: 2.32
18,B37,inactive: 0.58

# Target: SHP2 N-SH2 domain T52S
# Test: as above
# Conditions: peptide library: pTyr-Var
row,Binder,enrichment score
1,B1,inactive: 0.502
2,B2,inactive: 1.07
3,B3,inactive: 0.915
4,B4,inactive: 0.907
5,B5,inactive: 1.08
6,B6,inactive: 1.22
7,B7,inactive: 0.682
8,B8,inactive: 0.248
9,B9,inactive: 1.25
10,B10,inactive: 1.14
11,B11,inactive: 0.815
12,B12,inactive: 0.857
13,B13,inactive: 0.701
14,B14,inactive: 0.868
15,B15,inactive: 0.887
16,B16,inactive: 0.827
17,B17,inactive: 0.966
18,B18,inactive: 0.574
19,B19,inactive: 0.653

row,Binder,enrichment score
1,B20,inactive: 1.32
2,B21,inactive: 1.28
3,B22,inactive: 0.918
4,B23,inactive: 0.653
5,B24,active: 4.44
6,B25,inactive: 1.58
7,B26,inactive: 0.684
8,B27,active: 3.89
9,B28,inactive: 1.09
10,B29,inactive: 1.24
11,B30,inactive: 0.814
12,B31,inactive: 1.05
13,B32,inactive: 0.659
14,B33,inactive: 0.776
15,B34,inactive: 0.721
16,B35,inactive: 0.69
17,B36,inactive: 2.59
18,B37,inactive: 0.608

# Target: SHP2 N-SH2 domain wild-type
# Test: as above
# Conditions: peptide library: pTyr-Var
row,Binder,enrichment score
1,B1,inactive: 0.436
2,B2,inactive: 1.17
3,B3,inactive: 0.92
4,B4,inactive: 0.833
5,B5,inactive: 1.41
6,B6,inactive: 1.12
7,B7,inactive: 0.61
8,B8,inactive: 0.226
9,B9,inactive: 1.98
10,B10,inactive: 1.08
11,B11,inactive: 1.03
12,B12,inactive: 0.937
13,B13,inactive: 0.895
14,B14,inactive: 0.84
15,B15,inactive: 1.02
16,B16,inactive: 0.71
17,B17,inactive: 0.782
18,B18,inactive: 0.575
19,B19,inactive: 0.902

row,Binder,enrichment score
1,B20,inactive: 2.26
2,B21,inactive: 1.16
3,B22,inactive: 0.693
4,B23,inactive: 0.566
5,B24,active: 4.39
6,B25,inactive: 2.1
7,B26,inactive: 0.978
8,B27,active: 3.28
9,B28,inactive: 1.1
10,B29,inactive: 0.987
11,B30,inactive: 0.835
12,B31,inactive: 1.37
13,B32,inactive: 0.658
14,B33,inactive: 0.88
15,B34,inactive: 0.542
16,B35,inactive: 0.611
17,B36,inactive: 2.75
18,B37,inactive: 0.745
